Where two headings read alike, the source gives them in different places. Some entries of the source have several records that differ or are many. Only these are listed. The source may hold further records. For some assays here: The values listed for one entry seem to repeat one measurement; one of them may be the mean. Entries with a single value are a further part of the results.
Biological target: GST-BAK (human) (UniProt Q16611)
Test: fluorescence polarisation; competitive: displacement of 10 nM BID BH3 SAHB-fluorescein from 1 µM GST-BAK by BH3 peptides in dose response; 50 mM Tris-HCl pH 7.5, 50 mM KCl, 0.1 mg/mL BSA, 2 mM DTT, 0.005% Tween-20; 60 min at RT; IC50 from percent inhibition, 4-parameter fit

Sequence of UniProt Q16611 (Q16611 whole entry): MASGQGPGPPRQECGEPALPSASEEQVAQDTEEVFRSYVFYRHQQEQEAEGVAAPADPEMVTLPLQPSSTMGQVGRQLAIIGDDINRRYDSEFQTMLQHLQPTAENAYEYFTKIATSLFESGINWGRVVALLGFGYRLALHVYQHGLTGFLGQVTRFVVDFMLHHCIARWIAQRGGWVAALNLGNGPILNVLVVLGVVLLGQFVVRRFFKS

IC50 (mean of experiments) | Substance | IC50
6.61 µM | W(3) BID BH3 peptide | 7.12, 5.47, 7.79, 5.63, 5.62, 7.05, 5.66, 7.11, 8.02 µM [columns of one line]
8.79 µM | W(5) BID BH3 peptide | 10.9, 9.86, 9.96, 6.42, 8.23, 7.4, 10.4, 8.24, 7.77 µM [columns of one line]
– | WT BID BH3 peptide | 12.7, 6.93, 15.4, 8.8, 11, 9.27, 11.6, 22.2 µM [columns of one line]

Source: publication PMC8752837, “Structural basis of BAK activation in mitochondrial apoptosis initiation” (Nature Communications, 2022)
